Reference: patent US20180194862A1 (AbbVie / Abbott, published 2018)

T1: cynomolgus 4-1BB (cynomolgus, UniProt A9YYE7 24-186)
T1 sequence: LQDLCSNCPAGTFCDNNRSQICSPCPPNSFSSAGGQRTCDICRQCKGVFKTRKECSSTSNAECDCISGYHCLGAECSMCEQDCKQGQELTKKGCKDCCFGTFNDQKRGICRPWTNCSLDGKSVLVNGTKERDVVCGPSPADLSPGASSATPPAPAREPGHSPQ

B1: V6-2 (bispecific antibody)
chain: EVQLQESGPGLVKPSETLSLTCTVSGYSITSNYYWNWIRQPPGKGLEWMGYIRYDGSNNYNPSLKNRVTISRDTSKNQFSLKLSSVTAADTAVYYCARLDYWGQGTTVTVSSGGGGSGGGGSGGGGSGGGGSGGGGSGGGGSDAVMTQTPLSLSVTPGQPASISCRSSQSLENTNGNTFLNWYLQKPGQSPQLLIYRVSNRFSGVPDRFSGSGSGTDFTLKISRVEAEDVGVYYCLQVTHVPFTFGQGTKLEIKR[human IgG1 Fc with C220S V263L (EU numbers) not written out]GGGGSGGGSGGGSGGGGSSYELTQPPSVSVAPGQTARISCSGDKLGDKYASWYQQKPGQAPVLVIYQDNRRPSGIPERFSGSNSGNTATLTISGTQAEDEADYYCQAWDSDTYVFGGGTKLTVLGQGGGGSGGGGSGGGGSGGGGSGGGGSGGGGSEVQLVQSGAEVKKPGASVKVSCKASGDTFKRYYVHWVRQAPGQGLEWMGIINPSGVSTTYAQKFQGRVTMTRDTSTSTVYMELSSLRSEDTAVYYCAEVRGSGFNYFGMDVWGQGTLVTVSS
B2: V6-5 (bispecific antibody)
chain: EVQLQESGPGLVKPSETLSLTCTVSGYSITSNYYWNWIRQPPGKGLEWMGYIRYDGSNNYNPSLKNRVTISRDTSKNQFSLKLSSVTAADTAVYYCARLDYWGQGTTVTVSSGGGGSGGGGSGGGGSGGGGSGGGGSGGGGSDAQMTQSPSSLSASVGDRVTITCRSSQSLENTNGNTFLNWFQQKPGKAPKLLIYRVSNRFSGVPSRFSGSGSGTDFTLTISSLQPEDFATYYCLQVTHVPFTFGQGTKLEIKR[human IgG1 Fc with C220S V273E (EU numbers) not written out]GGGGSGGGSGGGSGGGGSSYELTQPPSVSVAPGQTARISCSGDKLGDKYASWYQQKPGQAPVLVIYQDNRRPSGIPERFSGSNSGNTATLTISGTQAEDEADYYCQAWDSDTYVFGGGTKLTVLGQGGGGSGGGGSGGGGSGGGGSGGGGSGGGGSEVQLVQSGAEVKKPGASVKVSCKASGDTFKRYYVHWVRQAPGQGLEWMGIINPSGVSTTYAQKFQGRVTMTRDTSTSTVYMELSSLRSEDTAVYYCAEVRGSGFNYFGMDVWGQGTLVTVSS
B3: hu106MSLN-2 (bispecific antibody)
chain: NVMLTQPHSVSESPGKTVTISCKLNSGNIGSYYVHWYQQRPGSSPTTMIYRDDKRPDGVPDRFSGSIDSSSNSASLTISGLKTEDEADYYCHSYDSTITPVFGGGTKLTVLGQGGGGSGGGGSGGGGSGGGGSGGGGSGGGGSEVQLVQSGAEVKKPGSSVKVSCKASGYTFTSYYIYWVRQAPGQGLEWIGNIWPGNGGTFYGEKFMGRATFTADTSTSTAYMELSSLRSEDTAVYYCARRPDYSGDDYFDYWGQGTLVTVSS[human IgG1 Fc with C220S V273E (EU numbers) not written out]GGGGSGGGSGGGSGGGGSSYELTQPPSVSVSPGQTASITCSGDKLGDKYASWYQQKPGQSPVLVIYQDNRRPSGIPERFSGSNSGNTATLTISGTQAMDEADYYCQAWDSDTYVFGTGTKVTVLGQGGGGSGGGGSGGGGSGGGGSGGGGSGGGGSEVQLVQSGAEVKKPGASVKVSCKASGDTFKRYYVHWVRQAPGQGLEWMGIINPSGVSTTYAQKFQGRVTMTRDTSTSTVYMELSSLRSEDTAVYYCAEVRGSGFNYFGMDVWGQGTLVTVSS
B4: hu106MSLN-3 (bispecific antibody)
chain: SYELTQPPSVSVSPGQTASITCSGDKLGDKYASWYQQKPGQSPVLVIYQDNRRPSGIPERFSGSNSGNTATLTISGTQAMDEADYYCQAWDSDTYVFGTGTKVTVLGQGGGGSGGGGSGGGGSGGGGSGGGGSGGGGSEVQLVQSGAEVKKPGASVKVSCKASGDTFKRYYVHWVRQAPGQGLEWMGIINPSGVSTTYAQKFQGRVTMTRDTSTSTVYMELSSLRSEDTAVYYCAEVRGSGFNYFGMDVWGQGTLVTVSS[human IgG1 Fc with C220S V273E (EU numbers) not written out]GGGGSGGGSGGGSGGGGSEVQLVQSGAEVKKPGSSVKVSCKASGYTFTSYYIYWVRQAPGQGLEWIGNIWPGNGGTFYGEKFMGRATFTADTSTSTAYMELSSLRSEDTAVYYCARRPDYSGDDYFDYWGQGTLVTVSSGGGGSGGGGSGGGGSGGGGSGGGGSGGGGSNVMLTQPHSVSESPGKTVTISCKLNSGNIGSYYVHWYQQRPGSSPTTMIYRDDKRPDGVPDRFSGSIDSSSNSASLTISGLKTEDEADYYCHSYDSTITPVFGGGTKLTVLGQ
B5: hu106MSLN-4 (bispecific antibody)
chain: SYELTQPPSVSVSPGQTASITCSGDKLGDKYASWYQQKPGQSPVLVIYQDNRRPSGIPERFSGSNSGNTATLTISGTQAMDEADYYCQAWDSDTYVFGTGTKVTVLGQGGGGSGGGGSGGGGSGGGGSGGGGSGGGGSEVQLVQSGAEVKKPGASVKVSCKASGDTFKRYYVHWVRQAPGQGLEWMGIINPSGVSTTYAQKFQGRVTMTRDTSTSTVYMELSSLRSEDTAVYYCAEVRGSGFNYFGMDVWGQGTLVTVSS[human IgG1 Fc with C220S V273E (EU numbers) not written out]GGGGSGGGSGGGSGGGGSNVMLTQPHSVSESPGKTVTISCKLNSGNIGSYYVHWYQQRPGSSPTTMIYRDDKRPDGVPDRFSGSIDSSSNSASLTISGLKTEDEADYYCHSYDSTITPVFGGGTKLTVLGQGGGGSGGGGSGGGGSGGGGSGGGGSGGGGSEVQLVQSGAEVKKPGSSVKVSCKASGYTFTSYYIYWVRQAPGQGLEWIGNIWPGNGGTFYGEKFMGRATFTADTSTSTAYMELSSLRSEDTAVYYCARRPDYSGDDYFDYWGQGTLVTVSS
B6: hu107MSLN-1 (bispecific antibody)
chain: EVQLVQSGAEVKKPGSSVKVSCKASDYTFNDYWVSWVRQAPGQGLEWIGEIYPNSGATNFNGKFRGRATLTVDNSASTAYMELSSLRSEDTAVYYCTREYTRDWFAYWGQGTLVTVSSGGGGSGGGGSGGGGSGGGGSGGGGSGGGGSDVVLTQSPLSLPVTLGQPASISCRSSQSLLDSDGNTYLYWFQQRPGQSPRRLIYLVSNLGSGVPDRFSGSGSGTDFTLKISRVEAEDVGVYYCMQPTHAPYTFGQGTKLEIKR[human IgG1 Fc with C220S V273E (EU numbers) not written out]GGGGSGGGSGGGSGGGGSSYELTQPPSVSVSPGQTASITCSGDKLGDKYASWYQQKPGQSPVLVIYQDNRRPSGIPERFSGSNSGNTATLTISGTQAMDEADYYCQAWDSDTYVFGTGTKVTVLGQGGGGSGGGGSGGGGSGGGGSGGGGSGGGGSEVQLVQSGAEVKKPGASVKVSCKASGDTFKRYYVHWVRQAPGQGLEWMGIINPSGVSTTYAQKFQGRVTMTRDTSTSTVYMELSSLRSEDTAVYYCAEVRGSGFNYFGMDVWGQGTLVTVSS
B7: hu107MSLN-2 (bispecific antibody)
chain: DVVLTQSPLSLPVTLGQPASISCRSSQSLLDSDGNTYLYWFQQRPGQSPRRLIYLVSNLGSGVPDRFSGSGSGTDFTLKISRVEAEDVGVYYCMQPTHAPYTFGQGTKLEIKRGGGGSGGGGSGGGGSGGGGSGGGGSGGGGSEVQLVQSGAEVKKPGSSVKVSCKASDYTFNDYWVSWVRQAPGQGLEWIGEIYPNSGATNFNGKFRGRATLTVDNSASTAYMELSSLRSEDTAVYYCTREYTRDWFAYWGQGTLVTVSS[human IgG1 Fc with C220S V273E (EU numbers) not written out]GGGGSGGGSGGGSGGGGSSYELTQPPSVSVSPGQTASITCSGDKLGDKYASWYQQKPGQSPVLVIYQDNRRPSGIPERFSGSNSGNTATLTISGTQAMDEADYYCQAWDSDTYVFGTGTKVTVLGQGGGGSGGGGSGGGGSGGGGSGGGGSGGGGSEVQLVQSGAEVKKPGASVKVSCKASGDTFKRYYVHWVRQAPGQGLEWMGIINPSGVSTTYAQKFQGRVTMTRDTSTSTVYMELSSLRSEDTAVYYCAEVRGSGFNYFGMDVWGQGTLVTVSS
B8: hu107MSLN-3 (bispecific antibody)
chain: SYELTQPPSVSVSPGQTASITCSGDKLGDKYASWYQQKPGQSPVLVIYQDNRRPSGIPERFSGSNSGNTATLTISGTQAMDEADYYCQAWDSDTYVFGTGTKVTVLGQGGGGSGGGGSGGGGSGGGGSGGGGSGGGGSEVQLVQSGAEVKKPGASVKVSCKASGDTFKRYYVHWVRQAPGQGLEWMGIINPSGVSTTYAQKFQGRVTMTRDTSTSTVYMELSSLRSEDTAVYYCAEVRGSGFNYFGMDVWGQGTLVTVSS[human IgG1 Fc with C220S V273E (EU numbers) not written out]GGGGSGGGSGGGSGGGGSEVQLVQSGAEVKKPGSSVKVSCKASDYTFNDYWVSWVRQAPGQGLEWIGEIYPNSGATNFNGKFRGRATLTVDNSASTAYMELSSLRSEDTAVYYCTREYTRDWFAYWGQGTLVTVSSGGGGSGGGGSGGGGSGGGGSGGGGSGGGGSDVVLTQSPLSLPVTLGQPASISCRSSQSLLDSDGNTYLYWFQQRPGQSPRRLIYLVSNLGSGVPDRFSGSGSGTDFTLKISRVEAEDVGVYYCMQPTHAPYTFGQGTKLEIKR
B9: hu107MSLN-4 (bispecific antibody)
chain: SYELTQPPSVSVSPGQTASITCSGDKLGDKYASWYQQKPGQSPVLVIYQDNRRPSGIPERFSGSNSGNTATLTISGTQAMDEADYYCQAWDSDTYVFGTGTKVTVLGQGGGGSGGGGSGGGGSGGGGSGGGGSGGGGSEVQLVQSGAEVKKPGASVKVSCKASGDTFKRYYVHWVRQAPGQGLEWMGIINPSGVSTTYAQKFQGRVTMTRDTSTSTVYMELSSLRSEDTAVYYCAEVRGSGFNYFGMDVWGQGTLVTVSS[human IgG1 Fc with C220S V273E (EU numbers) not written out]GGGGSGGGSGGGSGGGGSDVVLTQSPLSLPVTLGQPASISCRSSQSLLDSDGNTYLYWFQQRPGQSPRRLIYLVSNLGSGVPDRFSGSGSGTDFTLKISRVEAEDVGVYYCMQPTHAPYTFGQGTKLEIKRGGGGSGGGGSGGGGSGGGGSGGGGSGGGGSEVQLVQSGAEVKKPGSSVKVSCKASDYTFNDYWVSWVRQAPGQGLEWIGEIYPNSGATNFNGKFRGRATLTVDNSASTAYMELSSLRSEDTAVYYCTREYTRDWFAYWGQGTLVTVSS

Experiments:
[1] = target: human CD40 on cells (HEK293 stable transfectants, HEK-Blue CD40 cells, human B cells, monocytic cells, … (human, UniProt P25942 21-277)); test: cell-based or functional assay
[2] = target: T1, cynomolgus 4-1BB; test: SPR

UniProt P25942, sequence (P25942 21-277 limits assumed): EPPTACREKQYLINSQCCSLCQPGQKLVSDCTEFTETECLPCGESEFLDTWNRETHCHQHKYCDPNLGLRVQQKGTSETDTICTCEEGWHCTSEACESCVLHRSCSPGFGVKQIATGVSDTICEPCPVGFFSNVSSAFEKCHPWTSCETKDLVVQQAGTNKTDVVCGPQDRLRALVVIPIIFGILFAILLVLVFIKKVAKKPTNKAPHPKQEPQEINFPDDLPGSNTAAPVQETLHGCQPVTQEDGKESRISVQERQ

Row | Binder | Max. IL-12p70, DC co-cultured with HEK293 expressing mesothelin [1] [pg/mL] | Kd [2] [nM]
1 | B1 | 150 | 
2 | B2 | 300 | 
3 | B3 |  | 660
4 | B4 |  | 4100
5 | B5 |  | 940
6 | B6 |  | 0.55
7 | B7 |  | 1.4
8 | B8 |  | 4.5
9 | B9 |  | 3.3
